# About 31,000 (8.9%) of roughly 350,000 compounds were called active. The shares of active, inactive and inconclusive entries below differ from those in the screen. The call rests on the fitted dose curve; in most records, active means well fitted inhibition curve with a large enough effect; inconclusive means small, poorly fitted or top-dose-only effect; inactive means no such curve, though single readings can be large or run the other way. A potency beside an inconclusive call is a rough fit, not a confirmed value.
# Target: Histone-lysine N-methyltransferase EHMT2 (Homo sapiens) (UniProt Q96KQ7)
# Sequence of UniProt Q96KQ7 (Q96KQ7 whole entry, looked up): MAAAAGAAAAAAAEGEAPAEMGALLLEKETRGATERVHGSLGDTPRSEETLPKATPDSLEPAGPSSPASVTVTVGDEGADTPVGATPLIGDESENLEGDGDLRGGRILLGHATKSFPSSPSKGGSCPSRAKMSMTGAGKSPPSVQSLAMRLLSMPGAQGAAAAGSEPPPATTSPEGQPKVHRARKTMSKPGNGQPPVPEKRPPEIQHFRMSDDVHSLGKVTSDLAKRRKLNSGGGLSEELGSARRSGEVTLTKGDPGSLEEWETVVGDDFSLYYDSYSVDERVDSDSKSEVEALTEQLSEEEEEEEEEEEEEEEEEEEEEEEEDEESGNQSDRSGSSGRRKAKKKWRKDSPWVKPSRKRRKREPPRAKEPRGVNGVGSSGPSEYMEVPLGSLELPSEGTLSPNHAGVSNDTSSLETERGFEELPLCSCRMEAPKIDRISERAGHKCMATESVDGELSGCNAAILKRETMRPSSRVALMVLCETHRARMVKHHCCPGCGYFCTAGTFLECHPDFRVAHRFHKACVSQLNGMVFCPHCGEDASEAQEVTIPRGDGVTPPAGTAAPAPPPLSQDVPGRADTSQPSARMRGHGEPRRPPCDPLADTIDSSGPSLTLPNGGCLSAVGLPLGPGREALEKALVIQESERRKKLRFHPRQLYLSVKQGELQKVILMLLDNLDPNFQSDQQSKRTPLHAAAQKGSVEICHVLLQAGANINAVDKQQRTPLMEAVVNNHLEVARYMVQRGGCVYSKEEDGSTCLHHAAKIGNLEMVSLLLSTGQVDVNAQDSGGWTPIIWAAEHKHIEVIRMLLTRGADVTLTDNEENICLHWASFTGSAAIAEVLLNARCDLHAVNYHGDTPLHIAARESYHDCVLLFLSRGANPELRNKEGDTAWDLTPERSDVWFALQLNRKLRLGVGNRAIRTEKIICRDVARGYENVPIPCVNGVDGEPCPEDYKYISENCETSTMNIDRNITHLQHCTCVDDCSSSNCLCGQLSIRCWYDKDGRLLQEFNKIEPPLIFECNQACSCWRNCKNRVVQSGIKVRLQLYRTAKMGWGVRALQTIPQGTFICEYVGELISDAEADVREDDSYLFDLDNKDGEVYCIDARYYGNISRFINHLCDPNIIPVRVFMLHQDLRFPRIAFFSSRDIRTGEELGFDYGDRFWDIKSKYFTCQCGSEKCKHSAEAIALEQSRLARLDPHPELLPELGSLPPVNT
# Assay: qHTS Assay for Inhibitors of Histone Lysine Methyltransferase G9a; further: nearly all actives have a fitted effect of over 75% in size
# Settings: G9a H3K9 monomethylation, AlphaScreen, 2 h; activity, negative = inhibition: at 59 µM (top of the series) unless noted
# In short: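 Using a bead-based AlphaScreen, monomethylated H3K9 product from 2 h room-temperature reactions (G9a 20 nM, peptide 500 nM, SAM 20 uM) was detected with 0.5 ug/mL rabbit anti-H3K9me1 antibody.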
# On the % scale 0 is the no-effect control and ±100 the full control effect; potency means the concentration at half of the fitted maximal effect; tags describe the fitted curve by direction and shape.
Structure (SMILES),Potency,"activity, negative = inhibition"
CCN(CC)CCOc1c(Br)ccc2c1sc1nc3n(c(=O)c12)CCC3,active: 50.1 µM,
O=C(c1ccc(CS(=O)Cc2cccc(Cl)c2)o1)N1CCN(C2CCCCC2)CC1 (stereo unspecified),,inactive: 4.15% [at 102 µM]
COc1cccc(-c2nn(-c3ccccc3)cc2CN(C)Cc2c(C)nc3ccccn23)c1,"inconclusive: 8.91 µM [inhibitor, full curve, poor fit]",
COc1ccc(CNC(=O)CNS(=O)(=O)c2cccc(C#N)c2)cc1OC,active: 50.1 µM,
CCc1cccc(OCCN2CCCC2)c1,"inconclusive: 39.8 µM [inhibitor, single point]",
CCS(=O)(=O)c1ncc(Cl)c(C(=O)NCc2ccccc2)n1,"inconclusive: 28.2 µM [inhibitor, single point]",
CC1CCCN(S(=O)(=O)c2ccc(NC(=O)[C@@H]3CCCN3C(=O)c3cccs3)cc2)C1 (stereo partly specified),"inconclusive: 7.94 µM [inhibitor, partial curve, poor fit]",
O=C(NN1C(=O)C2C3C=CC(O3)C2C1=O)c1cccc(O)c1 (stereo unspecified),active: 7.94 µM,
NC(=S)N/N=C/c1cccc(O)c1O,"inconclusive: 50.1 µM [inhibitor, partial curve, poor fit]",
CC1CCCC(C)N1/N=C/C=C/c1ccccc1[N+](=O)[O-] (stereo unspecified),active: 31.6 µM,
COC(=O)c1scc(C)c1N/N=C(\C)c1ccc(F)cc1,,inactive: 43.3%
CC(C)Sc1nnc([C@H](Cc2c[nH]c3ccccc23)NC(=O)OC(C)(C)C)o1,,inconclusive: -54% [inhibitor]
CN1CCN(C(=S)NC(=O)c2cccc([N+](=O)[O-])c2)CC1,,inactive: -11.7% [at 102 µM]
Cc1cc(C(=O)NN=C2CCCC2)c2ccccc2n1,,inactive: -23.3% [at 102 µM]
CCOc1ccccc1Nc1nnc(SC(C)C(=O)Nc2nc(-c3ccccc3)cs2)s1 (stereo unspecified),"inconclusive: 39.8 µM [inhibitor, single point]",
Cc1ccc(NC(=O)C(=O)c2c(-c3ccccc3)cc3ccccn23)cc1S(=O)(=O)N1CCOCC1,"inconclusive: 11.2 µM [inhibitor, partial curve, poor fit]",
C=C(C)Cn1c(SCC(=O)c2ccccc2)nc2sc3c(c2c1=O)CCCC3,,inactive: 48.1%
O=C(CSc1cc([N+](=O)[O-])cc(S(=O)(=O)Cc2ccccc2)c1)NC1CC1,"inconclusive: 22.4 µM [inhibitor, single point]",
NS(=O)(=O)c1ccc(NC(=S)NCc2ccco2)cc1,active: 3.16 µM,
O=C(NCc1n[nH]c(=S)n1-c1ccccc1)c1ccco1,active: 8.91 µM,
O=C(COc1ccc(Br)cc1Cl)NC(=S)N1CCc2ccccc21,,inactive: 15.3%
Cn1c(N)c(C(=O)CSc2nnc(-c3c[nH]c4ccccc34)n2C2CC2)c(=O)[nH]c1=O,"inconclusive: 39.8 µM [inhibitor, single point]",
Cc1ccc(C(=O)ONc2ccc(N=NC(=O)c3ccccc3O)cc2)cc1,"inconclusive: 79.4 µM [inhibitor, single point]",
Cc1cc(Nc2ccccc2Br)n2nc(C)nc2n1,"inconclusive: 89.1 µM [inhibitor, single point]",
CCn1c(C)c(C(C)=O)c(N2CCN(C(c3ccccc3)c3ccccc3)CC2)nc1=S,"inconclusive: 20 µM [inhibitor, partial curve, poor fit]",
Cc1nc(SCC(=O)NC(=O)NC(C)(C)C)nc(C)c1C,,inconclusive: -68.6% [inhibitor]

Structure (SMILES),Potency,"activity, negative = inhibition"
S=C1NC[C@H](c2ccccc2)N1CCCCC1CCCCC1,,inactive: 4.36% [at 12.7 µM]
S=c1[nH]nc([C@@H]2C[C@H]2c2ccccc2)n1-c1ccccc1,active: 2 µM,
COC(=O)[C@H](Cc1c[nH]c2ccccc12)NC(=O)CCCc1c[nH]c2ccccc12,"inconclusive: 89.1 µM [inhibitor, single point]",
O=C(O)CCN1C(=O)S/C(=C\c2cccnc2)C1=O,active: 70.8 µM,
CCn1c(CNC(=O)c2ccc(Cl)cc2)nnc1SCC(=O)NC1=NCCS1,"inconclusive: 89.1 µM [inhibitor, single point]",
COC(=O)c1ccc(NC(=O)CSc2ccc(-c3ccccn3)nn2)cc1,,inconclusive: -55.8% [inhibitor] [at 12.7 µM]
COc1ccc(C(=O)CN2CCN(c3ccc(F)cc3)CC2)cc1OC,active: 39.8 µM,
CCCn1c(SCC(=O)c2ccc3c(c2)NC(=O)CO3)nc2ccccc21,"inconclusive: 35.5 µM [inhibitor, single point]",
CCCCCC(=O)Nc1nc(C)c(-c2csc(Nc3ccccc3OC)n2)s1,"inconclusive: 20 µM [inhibitor, single point]",
CCCNc1c(NS(=O)(=O)c2cccs2)c(=O)oc2ccccc12,,inactive: 18.7% [at 102 µM]
CCOC(=O)N1CCC(N2C(=O)c3ccc(C(=O)O)cc3C2=O)CC1,"inconclusive: 3.16 µM [inhibitor, partial curve, poor fit]",
COc1ccc(NC(=O)N2c3ccc(OC)cc3C(C)=CC2(C)C)cc1,active: 50.1 µM,
COc1ccc(OC)c(NC(=O)Nc2ccc(Cl)cc2)c1,"inconclusive: 89.1 µM [inhibitor, single point]",
Cc1ccc(-c2noc(-c3nnn(-c4ccc(Br)cc4F)c3C)n2)cc1,,inactive: 1.27%
O=C(Nc1ccc(F)cc1)c1cc2cc3ccc(Cl)cc3nc2o1,,inactive: -16%
Cc1cccn2c(=O)c(-c3nnn[nH]3)cnc12,"inconclusive: 0.708 µM [inhibitor, full curve, poor fit]",
Clc1ccccc1CN1CCc2nc(N3CCN(c4ncccn4)CC3)ncc2C1,"inconclusive: 39.8 µM [inhibitor, single point]",
O=C(O)/C=C/C(=O)NCCc1ccccc1,,inactive: -0.694% [at 102 µM]
C=CCSc1nc(NC)c2sccc2n1,,inactive: -2.52% [at 102 µM]
Cc1ccc(C(=O)NC(=S)N2CCN(C)CC2)cc1Br,active: 44.7 µM,
CC(=O)Nc1ccc(C(=O)Nc2ccc3c(c2)N(C2CCCC2)C(=O)c2ccccc2S3)cc1,"inconclusive: 39.8 µM [inhibitor, partial curve, poor fit]",
CC(=O)NC(=S)Nc1ccc(NC(=S)NC(=O)/C=C/c2ccco2)cc1,active: 39.8 µM,
COc1ccc(-c2cc(C(=O)N/N=C/c3cccnc3)c3ccccc3n2)cc1,"inconclusive: 11.2 µM [inhibitor, partial curve, poor fit]",
Clc1ccc2scc(CN3CCCCC3)c2c1,,inactive: -3.97%
CC1CCc2nc(NC(=O)CN3CCN(Cc4ccc5c(c4)OCO5)CC3)sc2C1 (stereo unspecified),,inconclusive: -65.4% [inhibitor]
CCSc1nccc(-c2nn(-c3ccc(C)cc3)ccc2=O)n1,active: 79.4 µM,

Structure (SMILES),Potency,"activity, negative = inhibition"
S=C(NCCCn1ccnc1)Nc1cccc(Cl)c1,active: 79.4 µM,
Oc1ccc(CNc2ccccc2)c2cccnc12,active: 1.26 µM,
CCOC(=O)CSc1nnc(N)s1,active: 17.8 µM,
O=C(C1CCN(S(=O)(=O)c2cccc3cccnc23)CC1)N1CCN(C2CCCC2)CC1,"inconclusive: 89.1 µM [inhibitor, single point]",
O=C(COC(=O)c1ccncc1)Nc1cc(S(=O)(=O)N2CCOCC2)ccc1Cl,"inconclusive: 28.2 µM [inhibitor, single point]",
CC(=O)c1c(OC(=O)c2ccccc2)ccnc1C(F)(F)F,,inactive: -2.13% [at 12.7 µM]
O=C1O/C(=C/c2ccccc2)c2ccccc21,,inactive: 17.9%
O=C(NNS(=O)(=O)c1ccc(F)cc1)C1CCCCC1,"inconclusive: 89.1 µM [inhibitor, partial curve, poor fit]",
COc1cc(CNc2ccc(N3CCCC3)cc2)cc(Cl)c1OC,active: 3.55 µM,
S=C(N/N=C/c1ccc2ncccc2c1)Nc1ccccc1,"inconclusive: 50.1 µM [inhibitor, partial curve, poor fit]",
COc1ccc(-n2ncc(C(=O)NCCN3CCOCC3)c2C2CCN(C(=O)OC(C)(C)C)CC2)cc1,,inactive: -20.2%
O=C(Nc1cccc(S(=O)(=O)Nc2ccc(Cl)cc2)c1)c1ccc[n+]([O-])c1,,inconclusive: -53.6% [inhibitor]
O=C(Nc1nnc(-c2ccccc2)o1)C1CCCCC1,"inconclusive: 0.708 µM [inhibitor, partial curve, poor fit]",
O=C(NNC(=S)Nc1ccc(F)cc1)C1CC1c1ccc(Cl)cc1 (stereo unspecified),"inconclusive: 25.1 µM [inhibitor, single point]",
CC(C)C(=O)Nc1nnc(Sc2ccc(N(C)C)cc2)s1,"inconclusive: 10 µM [inhibitor, full curve, poor fit]",
NNc1nc2ccc(Cl)cc2s1,active: 56.2 µM,
CN(C)CCNC(=O)/C(=C/c1ccc(-c2cccc([N+](=O)[O-])c2)o1)NC(=O)c1ccccc1,,inactive: -9.5%
CCOC(=O)Cc1csc(NC(=O)Nc2ccccc2)n1,,inactive: 6.91%
COc1ccccc1/C=C/C=N/NC(=O)Cc1cccn1C,"inconclusive: 89.1 µM [inhibitor, single point]",
O=c1oc2ccc3ccccc3c2cc1-c1nnc(Nc2cccc(C(F)(F)F)c2)s1,"inconclusive: 10 µM [inhibitor, partial curve, poor fit]",
Cc1nnc(NC(=O)CSc2cn(CCNC(=O)c3ccccc3)c3ccccc23)s1,active: 28.2 µM,
O=c1c2cc(N3CCOCC3)ccc2[nH]c(=S)n1Cc1ccccn1,"inconclusive: 3.55 µM [inhibitor, single point]",
CCOc1ccc(NCC(=O)N/N=C/C=C/c2ccccc2)cc1,active: 11.2 µM,
NS(=O)(=O)c1ccc(NC(=O)COC(=O)CSCc2ccc(F)cc2)cc1,,inactive: -2% [at 12.7 µM]

# Reference: PubChem BioAssay AID504332 (National Center for Advancing Translational Sciences (NCATS), 2011)
